Results as given in paper PMC12820563, “FoxP3 forms a head-to-head dimer in vivo and stabilizes its multimerization on adjacent microsatellites”.
The list shows a part of the results.

What follows are sequences tested against T1, MBP-FoxP1dN (Mus musculus, UniProt P58462 326-579) (assay: PD-seq (MBP pull-down with sequencing); 20 mM Tris-HCl pH 7.5, 100 mM NaCl, 1.5 mM MgCl2, 0.4 uM protein, 0.1 uM dsDNA library, 30 min, room temperature, amylose pull-down; high values mean tight binding). Details: protein: recombinant; tags: His6-MBP; chain copies: 2; dsDNA, one strand shown.
T1 sequence: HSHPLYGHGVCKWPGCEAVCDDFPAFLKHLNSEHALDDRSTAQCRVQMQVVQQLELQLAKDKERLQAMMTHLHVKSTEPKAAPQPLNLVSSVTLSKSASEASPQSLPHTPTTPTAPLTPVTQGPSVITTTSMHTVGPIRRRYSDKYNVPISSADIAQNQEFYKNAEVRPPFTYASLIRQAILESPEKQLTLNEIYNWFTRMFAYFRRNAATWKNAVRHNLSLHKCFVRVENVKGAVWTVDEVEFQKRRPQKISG
Summary of the method: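 Amylose resin was used to capture complexes formed during 30 min at room temperature in Tris pH 7.5 buffer with NaCl and MgCl2 between 0.4 µM His6-MBP-tagged mouse FoxP3 or FoxP1 fragment lacking the N-terminus, expressed in E. coli, and 0.1 µM Klenow-filled double-stranded degenerate DNA library. After three washes, the DNA was released with proteinase K, barcoded by PCR and sequenced on Illumina. Binding is pooled-replicate reads-per-million enrichment, pull-down over input.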

| Sequence | binding signal |
| --- | --- |
| GATGATTGTTCTCCCAGCTGATGAATTTCGGGTCTCGAGTAAACAAATTTTCCTAATCTTTCTGTTCAAGCGCCATCTAC | 0.759 RPM ratio (pull-down/input) |
| GATGATTGTTCTCCCAGCTGATGAATTCGTGGTCTCGAGTAAACAAATTTTCCTAATCTTTCTGTTCAAGCGCCATCTAC | 0.82 RPM ratio (pull-down/input) |
| GATGATTGTTCTCCCAGCTGATGAATTTATGCCCTCGAGTAAACAAATTTTCCTAATCTTTCTGTTCAAGCGCCATCTAC | 1.02 RPM ratio (pull-down/input) |
| GATGATTGTTCTCCCAGCTGATGAATTATGACCGTCGAGTAAACAAATTTTCCTAATCTTTCTGTTCAAGCGCCATCTAC | 0.927 RPM ratio (pull-down/input) |
| GATGATTGTTCTCCCAGCTGATGAATTATCCCTCTCGAGTAAACAAATTTTCCTAATCTTTCTGTTCAAGCGCCATCTAC | 0.912 RPM ratio (pull-down/input) |
| GATGATTGTTCTCCCAGCTGATGAATTCTAATTGTCGAGTAAACAAATTTTCCTAATCTTTCTGTTCAAGCGCCATCTAC | 1.29 RPM ratio (pull-down/input) |
| GATGATTGTTCTCCCAGCTGATGAATTTGCATCCTCGAGTAAACAAATTTTCCTAATCTTTCTGTTCAAGCGCCATCTAC | 1.77 RPM ratio (pull-down/input) |
| GATGATTGTTCTCCCAGCTGATGAATTCGGATAGTCGAGTAAACAAATTTTCCTAATCTTTCTGTTCAAGCGCCATCTAC | 0.83 RPM ratio (pull-down/input) |
| GATGATTGTTCTCCCAGCTGATGAATTTCTAGGGTCGAGTAAACAAATTTTCCTAATCTTTCTGTTCAAGCGCCATCTAC | 0.71 RPM ratio (pull-down/input) |
| GATGATTGTTCTCCCAGCTGATGAATTACACTCCTCGAGTAAACAAATTTTCCTAATCTTTCTGTTCAAGCGCCATCTAC | 0.964 RPM ratio (pull-down/input) |
| GATGATTGTTCTCCCAGCTGATGAATTATAATCATCGAGTAAACAAATTTTCCTAATCTTTCTGTTCAAGCGCCATCTAC | 1.29 RPM ratio (pull-down/input) |
| GATGATTGTTCTCCCAGCTGATGAATTGGGTAAATCGAGTAAACAAATTTTCCTAATCTTTCTGTTCAAGCGCCATCTAC | 1.17 RPM ratio (pull-down/input) |
| GATGATTGTTCTCCCAGCTGATGAATTAGAGATATCGAGTAAACAAATTTTCCTAATCTTTCTGTTCAAGCGCCATCTAC | 0.998 RPM ratio (pull-down/input) |
| GATGATTGTTCTCCCAGCTGATGAATTGGACCTTTCGAGTAAACAAATTTTCCTAATCTTTCTGTTCAAGCGCCATCTAC | 0.813 RPM ratio (pull-down/input) |
| GATGATTGTTCTCCCAGCTGATGAATTACGGAGATCGAGTAAACAAATTTTCCTAATCTTTCTGTTCAAGCGCCATCTAC | 0.932 RPM ratio (pull-down/input) |
| GATGATTGTTCTCCCAGCTGATGAATTGATACTATCGAGTAAACAAATTTTCCTAATCTTTCTGTTCAAGCGCCATCTAC | 1.29 RPM ratio (pull-down/input) |

| Sequence | binding signal |
| --- | --- |
| GATGATTGTTCTCCCAGCTGATGAATTCACTCCCTCGAGTAAACAAATTTTCCTAATCTTTCTGTTCAAGCGCCATCTAC | 0.792 RPM ratio (pull-down/input) |
| GATGATTGTTCTCCCAGCTGATGAATTCCAAAATTCGAGTAAACAAATTTTCCTAATCTTTCTGTTCAAGCGCCATCTAC | 0.865 RPM ratio (pull-down/input) |
| GATGATTGTTCTCCCAGCTGATGAATTGCAGTGTTCGAGTAAACAAATTTTCCTAATCTTTCTGTTCAAGCGCCATCTAC | 1.14 RPM ratio (pull-down/input) |
| GATGATTGTTCTCCCAGCTGATGAATTCTTACGGTCGAGTAAACAAATTTTCCTAATCTTTCTGTTCAAGCGCCATCTAC | 0.866 RPM ratio (pull-down/input) |
| GATGATTGTTCTCCCAGCTGATGAATTCCTTTACTCGAGTAAACAAATTTTCCTAATCTTTCTGTTCAAGCGCCATCTAC | 0.819 RPM ratio (pull-down/input) |
| GATGATTGTTCTCCCAGCTGATGAATTGTCCGGTTCGAGTAAACAAATTTTCCTAATCTTTCTGTTCAAGCGCCATCTAC | 0.913 RPM ratio (pull-down/input) |
| GATGATTGTTCTCCCAGCTGATGAATTACTCTGATCGAGTAAACAAATTTTCCTAATCTTTCTGTTCAAGCGCCATCTAC | 0.948 RPM ratio (pull-down/input) |
| GATGATTGTTCTCCCAGCTGATGAATTTAGTGCGTCGAGTAAACAAATTTTCCTAATCTTTCTGTTCAAGCGCCATCTAC | 1.07 RPM ratio (pull-down/input) |
| GATGATTGTTCTCCCAGCTGATGAATTAATTCTTTCGAGTAAACAAATTTTCCTAATCTTTCTGTTCAAGCGCCATCTAC | 0.927 RPM ratio (pull-down/input) |
| GATGATTGTTCTCCCAGCTGATGAATTCCAGAATTCGAGTAAACAAATTTTCCTAATCTTTCTGTTCAAGCGCCATCTAC | 0.825 RPM ratio (pull-down/input) |
| GATGATTGTTCTCCCAGCTGATGAATTTTCGGGTTCGAGTAAACAAATTTTCCTAATCTTTCTGTTCAAGCGCCATCTAC | 0.85 RPM ratio (pull-down/input) |
| GATGATTGTTCTCCCAGCTGATGAATTGGAGCCGTCGAGTAAACAAATTTTCCTAATCTTTCTGTTCAAGCGCCATCTAC | 0.806 RPM ratio (pull-down/input) |
| GATGATTGTTCTCCCAGCTGATGAATTGCGACTTTCGAGTAAACAAATTTTCCTAATCTTTCTGTTCAAGCGCCATCTAC | 1.26 RPM ratio (pull-down/input) |
| GATGATTGTTCTCCCAGCTGATGAATTACATCCCTCGAGTAAACAAATTTTCCTAATCTTTCTGTTCAAGCGCCATCTAC | 1.11 RPM ratio (pull-down/input) |
| GATGATTGTTCTCCCAGCTGATGAATTTCACCGATCGAGTAAACAAATTTTCCTAATCTTTCTGTTCAAGCGCCATCTAC | 0.876 RPM ratio (pull-down/input) |
